# The whole screen tested about 150,000 compounds, of which about 540 (0.36%) showed an effect of 50% or more. The list shows a part of the results.
# Test system: Plasmodium falciparum
# Assay: Primary screen in NF54 nanoGlo assay, in single point, at 2uM, 72h; a lower Z score goes with more inhibition
# Assay type: functional, Erythrocyte
# Details: timepoint 72 hour
Compound,% Inhibition [%],Z score
CC[C@H](C)Oc1c(Br)cc(C#N)cc1OC,7,-0.83
CC(C)Cn1ccnc1NC(=O)c1ccnn1C,-13,1.79
C[C@H](NC(=O)c1ccc2ccccc2n1)c1ccncc1,7,-0.93
Cc1ccc2nc(-c3cncnc3)cc(C(=O)N(C)C3CCCCCC3)c2c1,10,-1.41
CC(C)c1nc(C2CCCCCN2C(=O)C2C(C(=O)O)C2(C)C)no1 (stereo not drawn),-17,1.55
CCOCCC(=O)NCc1ccc(-c2ncon2)cc1,-10,1.23
O=C(CN1CCCC2CCCCC21)N1CCCC(c2nc3ccccc3s2)C1 (stereo not drawn),17,-2
CN(C)C(=O)C1(CNC(=O)NCc2nccs2)CCCC1,-3,0.44
CN(CC1(N2CCOCC2)CCCCC1)c1ccncn1,3,-0.4
Cc1ccc(S(=O)(=O)CC(=O)c2ccc[nH]2)c(C)c1,25,-2.87
CN1CCc2c(c3ccccc3n2CCC(N)=O)C1,-10,0.96
O=C(NCC1CC1)[C@]1(F)CCCN(Cc2ccoc2)C1,-17,1.46
Cc1ccc(C(=O)N2CCC3(CCC(=O)N(CC4CC4)C3)CC2)c(C)c1,-17,1.58
CCOCC(=O)N1CCCN(C)c2ccc(F)cc21,-5,0.75
Cc1cc(-n2c(C)cc(C(=O)Nc3ccccc3Oc3ccccc3)c2C)no1,-8,1.57
CC1CCN(C(=O)OC(C)(C)C)C(C)C1NC(=O)CCc1nc(C2CCCC2)no1 (stereo not drawn),-5,1
CN(C)c1ccc(/C=C\c2ccnc3c(N)cccc23)cc1,-26,3.09
Cc1cc2ncc(NC(=O)Cc3ccc(F)cc3)cn2n1,-9,1.38
COCCN1C[C@]2(CCCN(c3cc(OC)ncn3)C2)CCC1=O,1,-0.21
Cc1sc(C(=O)N2CCCC2)c2ncnc(NCc3ccc(F)cc3Cl)c12,-2,0.34
CCc1cc(NC(=O)NC[C@H]2C[C@@H]2C(F)(F)F)no1,4,-0.68
Cn1cc(CNc2ccc(-c3nncn3C)cn2)cn1,18,-2.4
C[C@H](NC(=O)c1coc(S(=O)(=O)N(C)C)c1)c1ccccn1,-6,0.75

Compound,% Inhibition [%],Z score
CC(C)Nc1nc(-c2cccc(Cl)c2)c2c(N)n(-c3ccccc3Cl)nc2n1,9,-1.14
O=C(CS(=O)(=O)Cc1ccccc1)Nc1nc(-c2ccc(Cl)cc2)cs1,-7,1.33
O=C(Nc1ccc(OC(F)(F)F)cc1)[C@@H](F)C(F)(F)F,-18,3.36
CC(C)CN1CC2(CCN(C(=O)Cn3cnnn3)CC2)CC1=O,-2,0.45
COc1cc(-c2ccccc2)ccc1CNc1ccc(C(N)=O)c(C)c1,-15,2.41
CN1CCN([C@H]2CN(Cc3cc(C(C)(C)C)[nH]n3)C[C@@H]2O)CC1,-10,2.07
COc1ccc(CNC(=O)C(=O)Nc2[nH]ncc2C#N)cc1OC,-2,0.25
COc1ccc(Cl)cc1CNCCN(C)C,-7,0.59
COc1ccc(NC(=O)[C@@H]2COCC(=O)N2Cc2cccs2)cc1,-1,0.06
COc1ccc(NC(=O)c2ccc(NC(=O)CCc3cccnc3)cc2)cc1,-18,2.94
O=C1C(=O)N(CN2CCCCC2)c2cc3c(cc21)OCCO3,-3,0.4
CCS(=O)(=O)N1CCCC(C(=O)NC2CCCC23OCCO3)C1 (stereo not drawn),-3,0.35
Cc1ccsc1CNC(=O)N1CCOC[C@@H]1C,35,-3.92
O=C(NC1CCC(c2ccc(F)cc2)CC1)c1ccnnc1 (stereo not drawn),-7,1.35
CCn1nc(C)c(CN[C@H]2CCCc3c2cnn3-c2ccc(C(C)(C)C)cc2)c1C,16,-2.39
CCC[C@H]1C=CCN1C(=O)c1coc(COc2ccc(C)cc2OC)n1,1,-0.14
CC(=O)NC1CCCN(CC(C)CC(C)C)C1 (stereo not drawn),-13,1.41
Cc1cnccc1CCNCC1(S(=O)(=O)NC(C)(C)C)CC1,-19,2.41
C[C@@H](C(=O)Nc1ccccn1)n1c(=O)n(CC2CC2)c2ccc(C(=O)O)cc21,-16,1.61
O=C(OCC1CCCCC1)N1CCN(Cc2cnccn2)CC1,-10,1.57
Cn1cnnc1-c1cncc(NC(=O)c2ccc(F)c(Cl)c2F)c1,-13,2.52
Cc1cc(-c2nc(-c3cnn(C(C)(C)C)c3)no2)n[nH]1,-5,0.75
COc1ccc(-c2cnn([C@@H]3CCCCO3)c2)c(OC)n1,-8,1.13

Compound,% Inhibition [%],Z score
O=C(C1CCC1)N1CCC2(CC1)N[C@@H](Cc1ccccc1)C(=O)N2CCc1ccccn1,-4,0.44
CS(=O)(=O)N[C@H]1CCN(CCc2ccc(F)c(F)c2)C1,-15,1.33
N#Cc1csc(C(=O)N2CCC(NC(=O)c3ccncc3)CC2)c1,-14,2.16
C=CCO[C@@H](C)C(=O)Nc1cnccc1N1CCCCC1,2,-0.22
CC(C)c1noc(-c2ccnc(NC3CCC(C(F)(F)F)CC3)c2)n1 (stereo not drawn),-14,1.7
O=C(Nc1ccc(F)cc1)NC1CCOC2(CCOC2)C1 (stereo not drawn),-4,0.5
O=C(Cc1cccc(F)c1)N1CCCC12CCC2,-2,0.33
C[C@@H]1CCC[C@H](C)N1CC(=O)NCCn1ccnc1,-7,1.04
NC(=O)c1ncc(NS(=O)(=O)c2ccc3c(c2)CCCC3)s1,-9,1.16
CN1CCN(Cc2ccc3ccccc3c2)CCC1=O,-10,1.38
CCOc1cncc(N(C)Cc2ncnn2C)n1,0,-0.02
CC(C)c1cc(CN(CCN(C)C)C[C@H]2CCCO2)on1,3,-0.53
O=C(NS(=O)(=O)C1CC2CCC1CC2)C1CC1c1ccc(F)c(F)c1 (stereo not drawn),-6,0.95
Cc1ccc(Cn2cccc2C(=O)C(=O)Nc2ccc(F)c(F)c2)cc1C,-15,1.43
O=S(=O)(CCCc1cn[nH]c1)Cc1cc(Cl)ccc1Cl,2,-0.4
COc1cc(-c2ccc(C(N)=O)o2)c(Cl)cn1,-2,0.32
Cc1ccc(OCc2nc(CC3CCN(C)CC3)nn2CC(=O)O)cc1C,3,-0.35
COCc1ccccc1S(=O)(=O)Nc1nc([C@H](C)OC)ns1,-4,0.51
COc1ccc(N2C(=O)[C@@H]3CCCN3[C@H]2c2ccc(Cl)cc2)cc1Cl,-4,0.58
CCCC(O)(CCC)CC(=O)N1CCN(C(=O)OCC)CC1,-7,0.63
CC(C)c1noc(CN(C)[C@@H](C)c2cccs2)n1,-13,1.28
Cc1ccc(-c2csc(-c3cnccn3)n2)cc1,-2,0.33
CCc1nccn1CC(=O)Nc1cc(C)nn1C,31,-4.46

Compound,% Inhibition [%],Z score
O=C(Nc1cccc(Cl)c1)C1CCN(c2nccc3sccc23)CC1,-20,1.94
Fc1ccc2ncnc(Oc3ccc(-n4cncn4)cc3)c2c1,-10,1.15
Fc1ccc2oc(CN3CCN(c4ccccn4)CC3)nc2c1,-8,1.58
Cc1ccc(-n2nc(CO)c(C(=O)NCCCc3ccccc3)n2)cc1C,-13,2.37
O=C(COC[C@H]1CCCO1)N1c2ccccc2Oc2ccccc21,18,-3.18
Cc1nccc(CCC(=O)N2CC3(CCOC3)C2)n1,-4,0.58
Cc1ccc(C(=O)NCC(C)(C)N2CCOCC2)o1,-8,1.22
Cc1ccc(CNC(=O)CCc2c(C)nn(-c3cc(N4CCCC4)ncn3)c2C)o1,-10,2.04
CCOc1ccccc1CN1CCC(Cn2c(C)cnc2-c2cccnc2)CC1,-8,1.11
FC(F)(F)c1ccc(Cl)c(-c2nn3c(Cc4ccccn4)nnc3s2)c1,-4,0.49
CC(C)(C)NC(=O)NC1CCCC(O)C1 (stereo not drawn),-3,0.52
CC(=O)N1CCCN(C(=O)c2cnc3ccccn23)CC1,6,-0.53
Cc1ccc(C(=O)N2CC[C@H](OCC3CC3)C2)c(C)c1,-9,1.4
Cc1cccc(OC2CCN(C(=O)CN3C(=O)CCC3=O)CC2)n1,-12,2.35
CC(C)[C@@H]1N(C(=O)C2CCOCC2)CC12CCCCC2,0,0.02
O=C(c1cnc(-c2cccnc2)s1)N1CCC[C@H]1c1ncon1,-9,1.34
Cc1ccoc1C(=O)NC[C@H]1CCN(Cc2nc(C(C)C)cs2)C1,-10,1.62
O=c1cc(CN2CCc3c(Cl)cc(Cl)cc3C2)[nH]c2ccnn12,-12,2.21
O=C(Nc1cccc(S(=O)(=O)NC2=NCCC2)c1)c1cc(Cl)c2c(c1)OCCCO2,-11,1.51
CC(C)(C)OC(=O)NCc1cn(-c2cccc(CN)c2)nn1,-4,0.36
